{"source": "paper PMC4336329", "about": "(PLoS ONE, 2015)", "note": "Screen size: about 310,000 compounds; about 2,200 (0.71%) showed an effect of 50% or more. Effects have a minus sign here. This is one part of the list."}
{"molecular_target": "human ether-à-go-go-related gene (hERG) potassium channel (human, UniProt Q12809)", "sequence (Q12809 whole entry, looked up)": "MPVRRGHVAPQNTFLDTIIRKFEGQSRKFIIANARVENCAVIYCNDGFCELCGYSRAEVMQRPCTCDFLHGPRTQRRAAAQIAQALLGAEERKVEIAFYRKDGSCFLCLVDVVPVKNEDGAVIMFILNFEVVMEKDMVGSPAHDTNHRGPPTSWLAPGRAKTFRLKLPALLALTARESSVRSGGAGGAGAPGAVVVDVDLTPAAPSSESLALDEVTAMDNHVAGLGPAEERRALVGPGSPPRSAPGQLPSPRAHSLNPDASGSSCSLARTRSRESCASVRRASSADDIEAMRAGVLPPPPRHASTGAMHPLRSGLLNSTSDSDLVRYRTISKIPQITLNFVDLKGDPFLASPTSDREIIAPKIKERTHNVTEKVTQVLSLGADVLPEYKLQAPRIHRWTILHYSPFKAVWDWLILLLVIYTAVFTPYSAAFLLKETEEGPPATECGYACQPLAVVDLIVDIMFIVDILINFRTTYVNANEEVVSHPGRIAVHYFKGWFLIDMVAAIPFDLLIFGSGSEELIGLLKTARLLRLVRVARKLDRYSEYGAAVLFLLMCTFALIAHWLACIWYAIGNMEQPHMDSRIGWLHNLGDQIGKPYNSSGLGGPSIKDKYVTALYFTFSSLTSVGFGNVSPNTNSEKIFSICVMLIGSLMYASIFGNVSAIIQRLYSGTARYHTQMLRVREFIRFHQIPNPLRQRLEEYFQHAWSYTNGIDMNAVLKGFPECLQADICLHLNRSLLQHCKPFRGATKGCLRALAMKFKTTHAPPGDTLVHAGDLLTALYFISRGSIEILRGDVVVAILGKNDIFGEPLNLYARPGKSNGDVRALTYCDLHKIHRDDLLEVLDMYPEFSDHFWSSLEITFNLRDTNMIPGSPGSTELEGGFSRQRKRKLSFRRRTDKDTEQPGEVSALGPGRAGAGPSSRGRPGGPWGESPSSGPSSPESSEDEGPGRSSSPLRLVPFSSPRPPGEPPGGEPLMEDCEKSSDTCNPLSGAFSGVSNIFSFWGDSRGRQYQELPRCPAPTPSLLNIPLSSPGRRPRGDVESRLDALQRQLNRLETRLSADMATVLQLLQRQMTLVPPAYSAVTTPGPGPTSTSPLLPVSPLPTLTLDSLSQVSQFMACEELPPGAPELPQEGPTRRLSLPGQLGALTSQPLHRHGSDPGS", "assay": "primary screen, population patch clamp on CHO cells stably expressing hERG", "units": {"hERG current change (%, negative = inhibition) at 1uM": "%"}}
{"smiles": "CCCNS(=O)(=O)c1ccc(OCC(=O)Nc2ccccc2F)cc1", "hERG current change (%, negative = inhibition) at 1uM": -5.69}
{"smiles": "COc1ccc(-c2ccc([C@H]3[C@H]4C=CC[C@@H](C)[C@@H]4C(=O)N3Cc3ccccc3)c(F)c2)cc1", "hERG current change (%, negative = inhibition) at 1uM": 9.65}
{"smiles": "COc1ccccc1-c1ccc(SCC(=O)NC2CCCCC2)nn1", "hERG current change (%, negative = inhibition) at 1uM": -27.2}
{"smiles": "COC1=Cc2c(ccc3ccc(=O)oc23)OC1(C)C", "hERG current change (%, negative = inhibition) at 1uM": 6.94}
{"smiles": "C=C(C)C(=O)Nc1cccc(C2=NOC3(C2)C[C@@H](C(N)=O)N(C(=O)C2(C)CC2)C3)c1", "note": "(some centres unmarked)", "hERG current change (%, negative = inhibition) at 1uM": 14.2}
{"smiles": "COc1ccc(CNC(=O)C2CCN(C(=O)c3cccc(Cl)c3)CC2)cc1", "hERG current change (%, negative = inhibition) at 1uM": -3.93}
{"smiles": "CC1=CC(=O)C=C(C)C1=NOc1ccc([N+](=O)[O-])cc1", "hERG current change (%, negative = inhibition) at 1uM": -11.7}
{"smiles": "CC1=C(C(=O)Nc2cccc(C(=O)N3CCN(c4cccc(C(F)(F)F)c4)CC3)c2)SCCO1", "hERG current change (%, negative = inhibition) at 1uM": 1.26}
{"smiles": "O=C1COC(c2ccccc2)=CN1Cc1ccccc1", "hERG current change (%, negative = inhibition) at 1uM": 6.87}
{"smiles": "O=C(O)Cc1nn(Cc2ccc(Cl)cc2)c(=O)c2ccccc12", "hERG current change (%, negative = inhibition) at 1uM": 8.5}
{"smiles": "COCc1ccc(C(=O)N2CCCC(C(=O)c3cccc(C(F)(F)F)c3)C2)o1", "note": "(centres unmarked)", "hERG current change (%, negative = inhibition) at 1uM": 9.37}
{"smiles": "CC1(C)O[C@H]2CC(=O)OC[C@@]23C1CC(=O)[C@]1(C)C3CC[C@@]2(C)[C@H](c3ccoc3)OC(=O)[C@H]3O[C@]321", "note": "(some centres unmarked)", "hERG current change (%, negative = inhibition) at 1uM": 6.21}
{"smiles": "COc1cccc(C2(O)CCN(C(=O)C3CCC3)CC2)c1", "hERG current change (%, negative = inhibition) at 1uM": 13.8}
{"smiles": "Cn1c(=O)c2nncnc2n(C)c1=O", "hERG current change (%, negative = inhibition) at 1uM": 8.41}
{"smiles": "CCn1cc(C(=O)Nc2cccc(NC(C)=O)c2)c2cc(OC)c(OC)cc2c1=O", "hERG current change (%, negative = inhibition) at 1uM": 12.5}
{"smiles": "CC(CC(=O)O)CC1=NS(=O)(=O)c2ccccc2N1", "note": "(centres unmarked)", "hERG current change (%, negative = inhibition) at 1uM": 13.4}
{"smiles": "COc1ccc(Br)cc1/C=N/NC(=O)c1cccc(S(=O)(=O)N2CCOCC2)c1", "hERG current change (%, negative = inhibition) at 1uM": 10.4}
{"smiles": "CN1C(=O)COc2c(C(=O)NC3CN4CCC3CC4)cc(Cl)cc21.Cl", "note": "(centres unmarked)", "hERG current change (%, negative = inhibition) at 1uM": 6.73}
{"smiles": "CCN1C(=O)C2(C(C(=O)c3cc4ccccc4o3)=C(O)C(=O)N2CCCN(C)C)c2ccccc21", "note": "(centres unmarked)", "hERG current change (%, negative = inhibition) at 1uM": 15.8}
{"smiles": "COc1ccc(C(=O)CSc2nc(-c3ccccn3)nc(C)c2Cl)cc1", "hERG current change (%, negative = inhibition) at 1uM": 13}
{"smiles": "N[C@H](CSCc1ccccc1)C(=O)Nc1ccc([N+](=O)[O-])cc1", "hERG current change (%, negative = inhibition) at 1uM": 10.5}
{"smiles": "COc1ccc2nc(NC(=O)c3cccc(-c4cc5ccccc5oc4=O)c3)sc2c1", "hERG current change (%, negative = inhibition) at 1uM": 10.7}
{"smiles": "COc1ccc(NC(=O)CSc2ccc([N+](=O)[O-])cc2)cc1S(=O)(=O)N1CCOCC1", "hERG current change (%, negative = inhibition) at 1uM": 1.51}
